# From PMC12040169 (PLOS Biology, 2025)
# Some of the results follow.
# Tested on: T1, C. trachomatis L2/434/Bu expressing GFP (CTL2-GFP)
# T1 construct: L2/434/Bu GFP intracellular growth in HeLa cells
# Parameters: species or system HeLa; C. trachomatis total inclusion area by high-content imaging, normalised to DMSO
# Conditions: total inclusion area; 28.5 h, 10 µM; inhibitor
# Method in brief: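 High-content images of fixed, Hoechst-stained infected cultures supply inclusion area and count (growth) plus nuclei number (viability), complementing bulk GFP/resorufin fluorescence. MIC determination is unchanged from the primary assay.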
row,Compound,% of control remaining
1,O=C(Nc1ccc2[nH]ccc2c1)N1CCCC(CO)C1 (centres unmarked) [CBK156044],105.451
2,N#Cc1ccc(C(=O)Nc2ccc3n(c2=O)C[C@H]2C[C@@H]3CN(C(=O)c3ccccc3)C2)cc1 [CBK289073],94.5261
3,O=C(COC(=O)c1ccccc1NC(=O)c1ccccc1)c1ccc2ccccc2c1 [CBK265491],90.3786
4,CC1CCCN(CC(C)(C)NC(=O)c2ccnn2C(F)F)C1 (centres unmarked) [CBK282099],101.814
5,O=S(=O)(NCc1cccnc1)N1CCOCC1 [CBK269945],103.92
6,COc1ccc(F)c(CN2CCC3(CCCNC3=O)CC2)c1 [CBK284827],75.3792
7,CCCCn1nc(C2CC2)nc1-c1cnn2cc(C)cnc12 [CBK306683],62.6081
8,C[C@H](Nc1cncc(-c2cccc(CO)c2)n1)c1ccccc1 [CBK065512],145.165
9,CC(C)c1noc(C(C)N2CCN(Cc3noc(C(C)(C)C)n3)CC2)n1 (centres unmarked) [CBK305202],67.9262
10,COc1ccc2c(c1)C1(CC(=O)N(Cc3ccccc3)C1=O)C(=O)N2CC(=O)O (centres unmarked) [CBK076108],103.256
11,CNC(=O)C1(Cc2ccccc2-c2ccccc2)CCN(C(=O)Cc2cccc(C)c2)CC1 [CBK285594],111.5
12,O=C(NCC1CCCN1)c1cnn(-c2ccc(Cl)cc2)c1C(F)(F)F (centres unmarked) [CBK115925C],99.454
13,C[C@@H]1CN(C(=O)c2cn(C)c3ccccc23)C[C@H](C)O1 [CBK200235],103.276
14,C=CCN1CCc2cc(-c3cncn3CC(=O)NC(C)(C)C)ccc21 [CBK281923],108.202
15,O=[N+]([O-])c1ccc(S(=O)(=O)NCCSCc2ccco2)cc1 [CBK267503],81.4391
16,CS(=O)(=O)c1ccc(-c2c[nH]c([C@@H]3COCCN3Cc3c[nH]c4ccccc34)n2)cc1 [CBK289321],118.669
17,CC(=O)N1C[C@@H]2C[C@H](C1)c1ccc(NS(=O)(=O)c3cccc(F)c3)c(=O)n1C2 [CBK288710],74.2045
18,COc1ccc(-n2cc(-c3cccc(C(F)(F)F)c3)nn2)cc1OC [CBK112933],80.8355
19,CCOc1cc(C)c(-c2cc(N)[nH]n2)cc1OCC [CBK288216],96.6697
20,O=C(/C=C/c1ccc([N+](=O)[O-])cc1)Nc1ccc(O)cc1C(=O)O [CBK263613],106.29
21,COc1ccc(NS(=O)(=O)c2ccc(NC(=S)NC(=O)C(C)(C)C)cc2)cc1 [CBK268990],51.4833
22,COc1ccc(OCCNC(=O)C2(c3ccc(OC)cc3)CC2)cc1 [CBK149821],46.3529
23,CN(C)CCN(C)[C@H]1CCCC[C@@H]1N(C)C(=O)Cc1ccc(Br)cc1 [CBK023819C],44.5299
24,Oc1c(C(Nc2cccnc2)c2ccccc2OCc2ccccc2)ccc2cccnc12 (centres unmarked) [CBK268587],27.0592
25,O=C(Nc1nnc(C2=COCCO2)o1)c1ccc(Cl)cc1Cl [CBK287419],74.7566
26,CCOc1ccsc1C(=O)N1CCc2ccccc2C1 [CBK200339],104.809

row,Compound,% of control remaining
1,COc1ccccc1OCc1ccc(C(=O)N2CCN(c3cccc(C(F)(F)F)c3)CC2)o1 [CBK074417],74.7772
2,O=C(NCCN1CCCC1)c1ccc(N2CCN(C(=O)c3ccccc3C(F)(F)F)CC2)nn1 [CBK153217],71.232
3,Cc1cc(C)n(CC(C)CNC(=O)Cc2csc(C(C)(C)C)n2)n1 (centres unmarked) [CBK305340],37.2532
4,COc1cc2c(cc1-c1cn(CCN3CCCOC3=O)nn1)CCC2 [CBK306515],63.9441
5,COc1cc(/C=N\Nc2nnc3c(n2)[nH]c2c(C)cccc23)cc(Br)c1O [CBK262375],100.061
6,CCNC1(Cc2cc(C(=O)N3CCCCC3)on2)COC1 [CBK289671],100.651
7,Cc1ccc(NC(=O)c2cnc3sc(C)cn3c2=O)cc1 [CBK287711],91.6788
8,CC(NC(=O)C1CCN(CCn2cnc3c2c(=O)n(C)c(=O)n3C)CC1)c1ccccc1 (centres unmarked) [CBK148624],107.425
9,CC1Oc2ccccc2OC1C(=O)Nc1ccc([N+](=O)[O-])cc1Cl (centres unmarked) [CBK269412],54.2951
10,CSCCCN1C(=O)CN(Cc2ccccc2)C1=O [CBK162363],56.6834
11,COCc1cc(C)n(CC(=O)Nc2ccc(N3CCOCC3)cc2)c(=O)c1C#N [CBK270190],118.408
12,COc1ccc([C@@]23CC[C@H](NC(=O)CS(=O)(=O)c4ccccc4)C[C@@H]2N(C)CC3)cc1OC [CBK036445],98.6581
13,COc1cnc(-c2cccc(C(=O)N(C)C)c2)c(NC(=O)c2ccccc2)n1 [CBK145385],97.6604
14,Cc1ccc2c(c1)CCN(S(C)(=O)=O)C21CCN(CCCOc2ccccc2)CC1 [CBK081066],66.9231
15,O=C(O)c1ccc(CNC(=O)c2ccc3c(c2)C(=O)N(CC2CCCO2)C3=O)cc1 (centres unmarked) [CBK264256],119.198
16,COC(C)CN(C)Cc1c(C)[nH]c2ccc(F)cc12 (centres unmarked) [CBK282035],96.4647
17,COc1cc(F)cc(OC2CCNCC2)c1NC(=O)c1coc2c1C(=O)CCC2 [CBK050351T],90.1627
18,CC(C)Cc1ccc(S(=O)(=O)Nc2ccc3[nH]c(=O)[nH]c3c2)cc1 [CBK270131],82.9678
19,Cc1nc2c([N+](=O)[O-])c3c(c([N+](=O)[O-])c2[nH]1)Nc1nonc1N3 [CBK261069],98.3925
20,CC(C)(CO)CCCn1cncc1-c1cnn(-c2ccccc2)c1 [CBK281922],83.3862
21,CC1CC(C)CN(Cc2csc(NC(=O)Cc3ccc(Cl)cc3)n2)C1 (centres unmarked) [CBK306142],32.0557
22,COc1ccc(-c2cc(C(=O)Nc3ccc(F)c(Cl)c3)cnc2-c2cccc(C)c2)cc1 [CBK037488],74.9706
23,CCC1CCCCN1C(=O)c1nc2ccccc2s1 (centres unmarked) [CBK076645],106.689
24,CCN1C(=O)CC2(C1=O)C(=O)N(CCc1cccs1)c1ccc(Cl)cc12 (centres unmarked) [CBK075614],75.8207
25,CCCCNc1cc(N2CCN(C(=O)COC)CC2)nc(N)n1 [CBK304078],47.8966
26,Fc1ccccc1COc1cccc(CNCCN2CCOCC2)c1 [CBK278148C],92.3773

row,Compound,% of control remaining
1,CC(=O)Nc1ccc(NCc2csc(C3CCCO3)n2)c(C(F)(F)F)c1 (centres unmarked) [CBK304161],62.9838
2,COc1ccc(NC(=O)CSc2ncnc3c2oc2ccccc23)c(OC)c1 [CBK287395],99.4156
3,CC1=NN(c2ccc(Cl)cc2)C(=O)/C1=C\Nc1nnn[nH]1 [CBK262407],109.963
4,CC(=O)Nc1cccc(-c2nccnc2N[C@H](CO)C(C)C)c1 [CBK036611],139.363
5,C(#Cc1csc(COc2cncc(N3CCNCC3)n2)c1)c1ccccc1 [CBK200006G],99.899
6,CC(C)c1ccc(/C=C/C(=O)NCCC(N)=O)cc1 [CBK149646],92.7075
7,Cc1nnc(Nc2ccc3c(c2)nc2n3CCN(C3CCCCC3)C2)c2ccccc12 [CBK268042],118.438
8,C=CCn1c2cc(C)sc2c2cnn(CC(=O)NC(C)C)c(=O)c21 [CBK284150],83.7108
9,Cc1cc(COc2ncccc2C(F)(F)F)no1 [CBK115783],100.784
10,O=C(Nc1ccc(N2CCNCC2)c2ccccc12)c1cccnc1 [CBK036336T],90.9665
11,COCCCN1C(=O)C(O)=C(C(=O)c2ccc(C)o2)C1c1ccc(OC)cc1 (centres unmarked) [CBK264863],116.623
12,COc1ccc(N2C(=O)CC(N3CCN(C4CC(=O)N(c5ccc(OC)cc5)C4=O)CC3)C2=O)cc1 (centres unmarked) [CBK260907],97.1412
13,COC(=O)[C@H]1CCc2ccccc2N1C(=O)C(C)C [CBK285474],58.6491
14,O=C1N[C@@H]2CCN(C(=O)CCn3ccccc3=O)C[C@@H]2CCCCCOc2ccccc21 [CBK292039],109.478
15,CCN1CCC(CC(=O)NCCn2ccnc2C)CC1 [CBK281984],88.7882
16,C[C@@H]1C[C@H](C)CN(C(C(=O)O)c2c[nH]c3ccccc23)C1 (some centres unmarked) [CBK286868],78.9614
17,Cc1ccc(-c2nc3ncccc3o2)cc1NC(=O)c1ccc(-c2cccc([N+](=O)[O-])c2)o1 [CBK268548],116.794
18,CC(C)(C)OC(=O)N1CCC(Oc2ccccc2C#N)C1 (centres unmarked) [CBK003039],92.2348
19,CN1C(=O)COc2ccccc2CCCC[C@@H]2[C@H]1CCCN2C(=O)CCCn1cncn1 [CBK292182],127.066
20,O=C(c1ccc2[nH]c(=O)[nH]c2c1)N1CCCC2(CCN(Cc3ccccc3)C2)C1 (centres unmarked) [CBK137149],83.8844
21,Cc1cc(=O)[nH]c2c1c(=O)[nH]n2C1CCCCCC1 [CBK288381],73.0957
22,Cc1ccc(C(=O)NCCNS(=O)(=O)c2ccccc2)cc1 [CBK264145],118.908
23,CC(C)c1csc(NC(=O)C2CN(S(=O)(=O)c3ccc(F)cc3)C2)n1 [CBK285944],93.6792
24,Cc1nn(Cc2cccc3ccccc23)c(C)c1NC(=O)c1ccccn1 [CBK269936],95.8357
25,CCCCc1c(O)[nH]c2nc3ccccc3n2c1=O [CBK287875],97.6194
